Some of the results follow. Antibody binding of pooled human sera (four to six donors per pool; dilution not stated) to peptides of the Trypanosoma cruzi antigen TSSA on microarrays. Quantile-normalised fluorescence in arbitrary units, mean of duplicate arrays; higher = more binding. No active / inactive call. The uninfected pools are read here as the healthy donors of the same country. The strongest signals lie near the top of the scale (about 60,000).
Key:
Experiment in all cases: antibody binding signal (normalised fluorescence) (arbitrary fluorescence units); higher = stronger serum antibody binding to peptide
[1] = system: pooled sera of chronic Chagas disease patients, Bolivia
Experimental: (§1)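 Microarray of 15-residue peptides over residues 30-55 of Trypanosoma cruzi TSSAII, each with 1 to 10 substitutions at naturally variable positions, probed with one serum pool per country.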

[2] = system: pooled sera of chronic Chagas disease patients, Brazil
Experimental: as §1

[3] = system: pooled sera of chronic Chagas disease patients, Colombia
Experimental: as §1

[4] = system: pooled sera of chronic Chagas disease patients, Mexico
Experimental: as §1

[5] = system: pooled sera of chronic Chagas disease patients, USA
Experimental: as §1

[6] = system: pooled sera of uninfected people, Argentina
Experimental: as §1

[7] = system: pooled sera of uninfected people, Bolivia
Experimental: as §1

[8] = system: pooled sera of uninfected people, Brazil
Experimental: as §1

[9] = system: pooled sera of uninfected people, Colombia
Experimental: as §1

[10] = system: pooled sera of uninfected people, Mexico
Experimental: as §1

[11] = system: pooled sera of uninfected people, USA
Experimental: as §1

| Sequence | antibody binding signal [1] | antibody binding signal [2] | antibody binding signal [3] | antibody binding signal [4] | antibody binding signal [5] | antibody binding signal [6] | antibody binding signal [7] | antibody binding signal [8] | antibody binding signal [9] | antibody binding signal [10] | antibody binding signal [11] |
| --- | --- | --- | --- | --- | --- | --- | --- | --- | --- | --- | --- |
| SGTDKKPATGGAPSQ | 804 | 28800 | 11300 | 3130 | 2810 | 395 | 1050 | 163 | 396 | 1760 | 264 |
| SGTENKPAAGETPSP | 20200 | 35300 | 483 | 836 | 10100 | 1020 | 1350 | 211 | 139 | 256 | 415 |
| GTEKKAATGGTPSQS | 944 | 409 | 1210 | 1390 | 1310 | 346 | 416 | 784 | 875 | 288 | 159 |
| DNKPATGGAPSQSGA | 13700 | 6340 | 316 | 527 | 2650 | 283 | 903 | 533 | 260 | 244 | 192 |
| KDKKTATGEAPSQPG | 3660 | 29000 | 151 | 435 | 13000 | 161 | 89.9 | 126 | 64 | 86.4 | 87.4 |
| TISTPPSGKDNKPAA | 6970 | 23600 | 556 | 20800 | 13500 | 1840 | 1410 | 407 | 234 | 179 | 434 |
| SGTEKKAATGGAPSQ | 266 | 2490 | 831 | 2290 | 2170 | 493 | 1220 | 126 | 1360 | 233 | 202 |
| PPSGKEKKPAAGETP | 664 | 2640 | 1450 | 9890 | 2830 | 531 | 830 | 131 | 365 | 85.1 | 329 |
| PPSGKDNKAATGETP | 4710 | 5230 | 453 | 7850 | 11300 | 354 | 838 | 232 | 310 | 131 | 185 |
| TISTPPSGTEKKTAA | 3520 | 30700 | 788 | 16100 | 3740 | 2020 | 335 | 284 | 142 | 104 | 293 |
| TEKKPAAGGAPSPPG | 289 | 438 | 5520 | 664 | 1860 | 260 | 225 | 779 | 149 | 346 | 1110 |
| TISTPPSGTENKPAT | 51200 | 51800 | 1420 | 5370 | 33100 | 7830 | 1230 | 585 | 855 | 760 | 830 |
| SGKENKAATGGTPSQ | 630 | 17800 | 6650 | 4540 | 18900 | 7580 | 1710 | 182 | 327 | 255 | 223 |
| KENKAATGEAPSPSG | 8440 | 31600 | 374 | 369 | 23800 | 189 | 180 | 127 | 163 | 94.1 | 192 |
| GTENKTATGETPSPS | 7750 | 2140 | 1540 | 2090 | 7790 | 135 | 346 | 148 | 217 | 390 | 2030 |
| DNKTAAGGTPSQPGA | 307 | 1640 | 5620 | 354 | 1440 | 370 | 355 | 1410 | 389 | 2790 | 194 |
| SGKENKTAAGETPSP | 3840 | 16100 | 5520 | 4450 | 17200 | 6850 | 2570 | 197 | 458 | 693 | 585 |
| KDKKPATGETPSPSG | 6490 | 18200 | 126 | 132 | 17000 | 130 | 200 | 115 | 112 | 897 | 998 |
| PSGKENKTATGGTPS | 1470 | 9500 | 9730 | 8740 | 6890 | 5590 | 1580 | 144 | 469 | 269 | 194 |
| KEKKAAAGEAPSQPG | 7000 | 29700 | 175 | 124 | 8610 | 119 | 97.6 | 104 | 91.3 | 73.6 | 75 |
| GKDKKPAAGETPSPP | 245 | 2120 | 900 | 1120 | 1660 | 116 | 118 | 79.4 | 87.4 | 85.5 | 134 |
| SGKDKKTAAGGTPSP | 243 | 300 | 5520 | 913 | 2120 | 113 | 88.4 | 258 | 188 | 95 | 114 |
| GTEKKPATGGTPSPS | 717 | 830 | 2760 | 1940 | 1280 | 290 | 1270 | 2120 | 255 | 372 | 1490 |
| GKENKPAAGEAPSPP | 701 | 28900 | 3830 | 5320 | 18700 | 628 | 313 | 144 | 134 | 335 | 95.5 |
| TDKKAAAGGAPSQPG | 349 | 2310 | 5630 | 634 | 413 | 201 | 100 | 223 | 120 | 235 | 147 |
| TPPSGTEKKTAAGGA | 3970 | 24100 | 5050 | 11100 | 1980 | 1260 | 228 | 316 | 121 | 182 | 248 |
| KDKKTAAGEAPSPSG | 193 | 219 | 250 | 194 | 3210 | 130 | 72.8 | 93.9 | 290 | 75 | 111 |

| Sequence | antibody binding signal [1] | antibody binding signal [2] | antibody binding signal [3] | antibody binding signal [4] | antibody binding signal [5] | antibody binding signal [6] | antibody binding signal [7] | antibody binding signal [8] | antibody binding signal [9] | antibody binding signal [10] | antibody binding signal [11] |
| --- | --- | --- | --- | --- | --- | --- | --- | --- | --- | --- | --- |
| KKAATGGAPSQPGAS | 276 | 1680 | 427 | 409 | 350 | 364 | 163 | 97.2 | 238 | 79.1 | 348 |
| GKENKAATGEAPSPP | 26500 | 36400 | 13700 | 14500 | 28800 | 370 | 150 | 135 | 161 | 196 | 129 |
| SGTDNKTATGETPSP | 2500 | 42200 | 296 | 167 | 7180 | 131 | 576 | 1010 | 137 | 180 | 696 |
| TDNKTATGGTPSPPG | 854 | 506 | 390 | 287 | 487 | 242 | 217 | 390 | 343 | 167 | 133 |
| GKDKKTATGEAPSPS | 2800 | 3230 | 832 | 995 | 14000 | 198 | 72.8 | 99.4 | 90.1 | 73.6 | 79 |
| DNKTAAGEAPSPSGA | 366 | 1080 | 252 | 185 | 6890 | 160 | 189 | 209 | 193 | 243 | 125 |
| TDNKTAAGEAPSQSG | 16400 | 10700 | 126 | 256 | 7120 | 119 | 392 | 222 | 158 | 190 | 124 |
| KENKPAAGETPSPSG | 332 | 13500 | 381 | 513 | 4480 | 190 | 384 | 164 | 135 | 280 | 1900 |
| TDKKPAAGEAPSQSG | 13200 | 20400 | 276 | 238 | 14800 | 66.4 | 298 | 146 | 78.5 | 139 | 99.8 |
| TSSTPPSGTEKKTAA | 3160 | 30400 | 847 | 11200 | 4130 | 1960 | 296 | 126 | 143 | 93.4 | 331 |
| PPSGKDKKPATGGAP | 748 | 1420 | 954 | 38800 | 1890 | 429 | 857 | 113 | 251 | 100 | 253 |
| SGKDNKTAAGETPSP | 532 | 1240 | 3600 | 1190 | 3200 | 261 | 325 | 170 | 675 | 229 | 495 |
| KKPATGETPSQPGAS | 5210 | 35400 | 153 | 238 | 16900 | 467 | 792 | 127 | 186 | 591 | 634 |
| PSGTDNKPATGETPS | 38600 | 47500 | 2030 | 328 | 27300 | 353 | 661 | 653 | 347 | 2000 | 212 |
| SGKEKKAAAGGAPSQ | 243 | 2850 | 6260 | 7350 | 6500 | 152 | 82.5 | 114 | 115 | 88.1 | 94.9 |
| GTDKKTAAGEAPSPP | 238 | 1040 | 974 | 428 | 8390 | 164 | 226 | 195 | 1290 | 192 | 108 |
| TDKKTAAGEAPSQPG | 15100 | 35500 | 354 | 450 | 7490 | 246 | 259 | 410 | 867 | 175 | 107 |
| KDNKTATGEAPSPSG | 13500 | 14600 | 2220 | 220 | 22200 | 511 | 220 | 189 | 303 | 87.1 | 192 |
| GKDNKAATGEAPSQS | 32100 | 34300 | 4130 | 4210 | 26500 | 304 | 301 | 116 | 269 | 103 | 105 |
| GKENKAAAGGAPSPP | 287 | 5130 | 5140 | 2470 | 11700 | 352 | 86.5 | 91.9 | 122 | 122 | 132 |
| PSGTENKPAAGGAPS | 34200 | 44800 | 5300 | 5920 | 13300 | 1940 | 3470 | 952 | 581 | 686 | 566 |
| SGTENKPATGETPSP | 35400 | 40000 | 320 | 497 | 32800 | 882 | 1160 | 314 | 167 | 1900 | 491 |
| EKKAATGGTPSQPGA | 820 | 1050 | 2570 | 1450 | 1330 | 446 | 724 | 903 | 1100 | 600 | 733 |
| KDKKAATGETPSPPG | 258 | 6580 | 120 | 277 | 6030 | 325 | 93 | 96.6 | 216 | 72.5 | 558 |
| PPSGKEKKPAAGEAP | 598 | 2330 | 1740 | 11600 | 9030 | 559 | 910 | 129 | 397 | 83.5 | 302 |
| STPPSGTDNKTATGG | 48500 | 49200 | 1770 | 30500 | 28700 | 1170 | 748 | 1780 | 265 | 305 | 319 |

— the supplement of paper PMC10441789
